In publication PMC11782079:

Assays:
[1] = biological target: FaRel2-Y128F (catalytically impaired toxSAS toxin) (Coprobacillus sp. D7); assay: ITC; ATfaRel2 or variant in the syringe at 200-150 uM, FaRel2 in the cell at 15-20 uM; 25 °C; 25 mM HEPES pH 7.6, 300 mM NaCl, 2 mM MgCl2, 1 mM TCEP
[2] = biological target: FaRel2-Y128F (catalytically impaired toxSAS toxin) (Coprobacillus sp. D7); assay: SEC; analytical SEC, 150 ul of each protein at 1 mg/ml; 25 mM HEPES pH 7.6, 200 mM NaCl, 2 mM MgCl2, 1 mM TCEP

ATfaRel2 Y54A (natural protein)
fold lower affinity than WT ATfaRel2 [1]: 250 fold

ATfaRel2 A50M (natural protein)
Kd [1]: 38 nM

ATfaRel2 Y51A (natural protein)
fold reduction in affinity against WT ATfaRel2 [1]: 43 fold

ATfaRel2 V43A (natural protein)
Kd [1]: 78.8 nM

ATfaRel2 F59A (natural protein)
fold decrease in affinity against WT ATfaRel2 [1]: 60 fold
stoichiometry N [1]: 1

ATfaRel2 antitoxin (wild type) (natural protein)
Kd [1]: 35.2 nM
stoichiometry N (ATfaRel2 per FaRel2 (2:2)) [2]: 1

ATfaRel2-R47A (natural protein)
KD of the first high-affinity binding event [1]: 35 nM
KD of the second lower-affinity recognition event [1]: 750 nM
N of the first high-affinity binding event [1]: 0.4
N of the second lower-affinity recognition event [1]: 0.8
stoichiometry N (ATfaRel2 per FaRel2 (1:2 A:T)) [2]: 0.5

ATfaRel2 I45A (natural protein)
fold reduction in affinity against WT ATfaRel2 [1]: 25 fold
